From a collection of fitness landscapes (doi:10.1016/j.celrep.2020.107928)
In all, about 81,000 sequences were measured (“one-hybrid fitness for binding parS DNA”: median about -0.17, highest 2% from about 0.51 on). The list shows a part of the results.

B1: Caulobacter ParB omega fusion; a variant is named by its letters at X, in order, B8GW30 (parent)
chain: MESVVVGEPGMSEGRRGLGRGLSALLGEVDAAPAQAPGEQLGGSREAPIEILQRNPDQPRRTFREEDLEDLSNSIREKGVLQPILVRPSPDTAGEYQIVAGERAWRAAQRAGLKTVPIMVRELDDLAVLEIGIIENVQRADLNVLEEALSYKVLMEKFERTQENIAQTIGKSXSHVANXMRLLXLPDEVQSYLVSGELTAXHARAIAAAADPVALAKQIIEGGLSVRETEALARKAPNLSAGKSKGGRPPRVKDTDTQALESDLSSVLGLDVSIDHRGSTGTLTITYATLEQLDDLCNRLTRGI

Variants of: B1
Assay: one-hybrid fitness for binding parS DNA (scaled: cognate 1, non-cognate 0); higher = stronger binding
Conditions: with parS DNA site
Procedure, shortened: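 Caulobacter ParB libraries with four specificity codons randomised were screened by bacterial one-hybrid selection in the E. coli USO strain, using a HIS3 reporter whose site lies 19 bp from the promoter. Selection ran for 48 hours at 37°C on M9 lacking histidine, with 0.1 mM IPTG and 5 mM 3-AT. Plasmids were Illumina-sequenced before and after selection, three replicate libraries were pooled, and variants with under 10 reads were dropped. Fitness is the log change in each variant's read ratio to wild type, rescaled against the cognate and non-cognate sites.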

| Variant | one-hybrid fitness for binding parS DNA |
| --- | --- |
| PSYW | ≤ 0.2 |
| GAHP | ≤ 0.2 |
| FYRT | ≤ 0.2 |
| MPKF | ≤ 0.2 |
| SDYS | ≤ 0.2 |
| VCNC | ≤ 0.2 |
| YRPM | ≤ 0.2 |
| KQDC | ≤ 0.2 |
| FRLS | ≤ 0.2 |
| VSIP | ≤ 0.2 |
| PGNY | ≤ 0.2 |
| WCPL | ≤ 0.2 |
| LVHY | ≤ 0.2 |
| MSGM | ≤ 0.2 |
| VAKY | ≤ 0.2 |
| LSNR | ≤ 0.2 |
| TEQS | ≤ 0.2 |
| TMST | ≤ 0.2 |
| HMAI | ≤ 0.2 |
| CSAW | ≤ 0.2 |
| CDNY | ≤ 0.2 |
| WCLR | ≤ 0.2 |
| NNRI | ≤ 0.2 |
| HDTS | ≤ 0.2 |

| Variant | one-hybrid fitness for binding parS DNA |
| --- | --- |
| TITG | ≤ 0.2 |
| CSRY | ≤ 0.2 |
| PSPR | ≤ 0.2 |
| SHLA | ≤ 0.2 |
| SSSS | ≤ 0.2 |
| LCIG | ≤ 0.2 |
| LSLE | ≤ 0.2 |
| WLHP | ≤ 0.2 |
| HSRR | ≤ 0.2 |
| WFAK | ≤ 0.2 |
| QQCK | ≤ 0.2 |
| QMHC | ≤ 0.2 |
| PVPL | ≤ 0.2 |
| RTQG | 1 |
| GERV | ≤ 0.2 |
| PTLC | ≤ 0.2 |
| NAAT | ≤ 0.2 |
| ISDR | ≤ 0.2 |
| ADTC | ≤ 0.2 |
| RAVV | ≤ 0.2 |
| MNTR | ≤ 0.2 |
| TPAK | ≤ 0.2 |
| NKHW | ≤ 0.2 |
| PKTP | ≤ 0.2 |

| Variant | one-hybrid fitness for binding parS DNA |
| --- | --- |
| RGAP | ≤ 0.2 |
| SSKD | ≤ 0.2 |
| RAVQ | 0.23 |
| RRAP | ≤ 0.2 |
| TRDH | ≤ 0.2 |
| TIKY | ≤ 0.2 |
| QELR | ≤ 0.2 |
| QVVL | ≤ 0.2 |
| ICPF | ≤ 0.2 |
| QLFC | ≤ 0.2 |
| TVHW | ≤ 0.2 |
| PRPA | ≤ 0.2 |
| DLAK | ≤ 0.2 |
| EECS | ≤ 0.2 |
| MHLS | ≤ 0.2 |
| QISR | ≤ 0.2 |
| MLLE | ≤ 0.2 |
| FRKS | ≤ 0.2 |
| VYAA | ≤ 0.2 |
| PHFT | ≤ 0.2 |
| KTFY | ≤ 0.2 |
| HATT | ≤ 0.2 |
| YWPT | ≤ 0.2 |
| RPWV | ≤ 0.2 |

| Variant | one-hybrid fitness for binding parS DNA |
| --- | --- |
| DYAR | ≤ 0.2 |
| CSNE | ≤ 0.2 |
| SAAH | ≤ 0.2 |
| SYKM | ≤ 0.2 |
| TYRV | ≤ 0.2 |
| YGAR | ≤ 0.2 |
| VCVM | ≤ 0.2 |
| RGTC | 0.695 |
| AVVV | ≤ 0.2 |
| YPQS | ≤ 0.2 |
| HVPF | ≤ 0.2 |
| ASGI | ≤ 0.2 |
| MAHC | ≤ 0.2 |
| IKLT | ≤ 0.2 |
| LSWD | ≤ 0.2 |
| RWHE | ≤ 0.2 |
| TTPR | ≤ 0.2 |
| RAPA | 0.231 |
| GPAG | ≤ 0.2 |
| ELMV | ≤ 0.2 |
| YWSS | ≤ 0.2 |
| MSRR | ≤ 0.2 |
| FGVT | ≤ 0.2 |
| ATYS | ≤ 0.2 |

| Variant | one-hybrid fitness for binding parS DNA |
| --- | --- |
| WARV | ≤ 0.2 |
| RYHV | ≤ 0.2 |
| SHCH | ≤ 0.2 |
| PTSK | ≤ 0.2 |
| SNKG | ≤ 0.2 |
| NVAL | ≤ 0.2 |
| ATLH | ≤ 0.2 |
| NQVL | ≤ 0.2 |
| RHTQ | ≤ 0.2 |
| QMSP | ≤ 0.2 |
| YTAP | ≤ 0.2 |
| SRNL | ≤ 0.2 |
| PKET | ≤ 0.2 |
| LHRT | ≤ 0.2 |
| DPRG | ≤ 0.2 |
| ERNT | ≤ 0.2 |
| HQPR | ≤ 0.2 |
| MRMR | ≤ 0.2 |
| VHRC | ≤ 0.2 |
| ATTH | ≤ 0.2 |
| KMQT | ≤ 0.2 |
| PRSD | ≤ 0.2 |
| VVDT | ≤ 0.2 |
| VRIR | ≤ 0.2 |

| Variant | one-hybrid fitness for binding parS DNA |
| --- | --- |
| NRRL | ≤ 0.2 |
| TLTG | ≤ 0.2 |
| VANE | ≤ 0.2 |
| KWPS | ≤ 0.2 |
| DRGL | ≤ 0.2 |
| AHNR | ≤ 0.2 |
| TYRM | ≤ 0.2 |
| PPCG | ≤ 0.2 |
| VQYR | ≤ 0.2 |
| LDHR | ≤ 0.2 |
| HPGV | ≤ 0.2 |
| VWMW | ≤ 0.2 |
| ARPV | ≤ 0.2 |
| PTIC | ≤ 0.2 |
| FYRS | ≤ 0.2 |
| RAPS | 0.673 |
| PHRP | ≤ 0.2 |
| WIQR | ≤ 0.2 |
| ALYY | ≤ 0.2 |
| QSFT | ≤ 0.2 |
| RQNL | ≤ 0.2 |
| PYYW | ≤ 0.2 |
| HPNG | ≤ 0.2 |
| MHQW | ≤ 0.2 |

| Variant | one-hybrid fitness for binding parS DNA |
| --- | --- |
| RPIS | ≤ 0.2 |
| YCPS | ≤ 0.2 |
| KFNE | ≤ 0.2 |
| KLIS | ≤ 0.2 |
| GGTC | ≤ 0.2 |
| RIYQ | ≤ 0.2 |
| PPFT | ≤ 0.2 |
| TMRV | ≤ 0.2 |
| GMRQ | ≤ 0.2 |
| AMFR | ≤ 0.2 |
| DKSG | ≤ 0.2 |
| LIKA | ≤ 0.2 |
| STWY | ≤ 0.2 |
| YLNM | ≤ 0.2 |
| THRR | ≤ 0.2 |
| LERN | ≤ 0.2 |
| YVSP | ≤ 0.2 |
| MMTC | ≤ 0.2 |
| PTKI | ≤ 0.2 |
| WSCS | ≤ 0.2 |
| CKCS | ≤ 0.2 |
| RKKL | ≤ 0.2 |
| TWNT | ≤ 0.2 |
| STVA | ≤ 0.2 |

| Variant | one-hybrid fitness for binding parS DNA |
| --- | --- |
| EMHC | ≤ 0.2 |
| TWCD | ≤ 0.2 |
| MLKR | ≤ 0.2 |
| KVGN | ≤ 0.2 |
| KYPT | ≤ 0.2 |
| SNYE | ≤ 0.2 |
| FLQL | ≤ 0.2 |
| QLDA | ≤ 0.2 |
| TNVT | ≤ 0.2 |
| HTTI | ≤ 0.2 |
| MAHR | ≤ 0.2 |
| KESG | ≤ 0.2 |
| PRRF | ≤ 0.2 |
| VSYV | ≤ 0.2 |
| SISH | ≤ 0.2 |
| YRSG | ≤ 0.2 |
| VTLV | ≤ 0.2 |
| ARSG | ≤ 0.2 |
| RMKD | ≤ 0.2 |
| LDSY | ≤ 0.2 |
| YGPG | ≤ 0.2 |
| RCAT | 0.921 |
| VDPS | ≤ 0.2 |
| NNAD | ≤ 0.2 |

| Variant | one-hybrid fitness for binding parS DNA |
| --- | --- |
| RPTF | ≤ 0.2 |
| WRTG | ≤ 0.2 |
| PPWC | ≤ 0.2 |
| ALPQ | ≤ 0.2 |
| EISG | ≤ 0.2 |
| PCVG | ≤ 0.2 |
| CQFS | 0.281 |
| SHGD | ≤ 0.2 |
| FAVG | ≤ 0.2 |
| PHTD | ≤ 0.2 |
| SAPL | ≤ 0.2 |
| RVSY | 0.479 |
| NCIR | ≤ 0.2 |
| DRQA | ≤ 0.2 |
| SNQG | ≤ 0.2 |
| RAGS | 0.989 |
| QATD | ≤ 0.2 |
| GAEL | ≤ 0.2 |
| DAFG | ≤ 0.2 |
| TTKH | ≤ 0.2 |
| PYPC | ≤ 0.2 |
| PCEG | ≤ 0.2 |
| KTTG | ≤ 0.2 |
| APFL | ≤ 0.2 |

| Variant | one-hybrid fitness for binding parS DNA |
| --- | --- |
| MRSE | ≤ 0.2 |
| KGED | ≤ 0.2 |
| SHGF | ≤ 0.2 |
| RAAM | 0.345 |
| SSAP | ≤ 0.2 |
| LTRR | ≤ 0.2 |
| QKLN | ≤ 0.2 |
| TREN | ≤ 0.2 |
| VTCR | ≤ 0.2 |
| SALN | ≤ 0.2 |
| RLIN | 0.38 |
| QFGM | ≤ 0.2 |
| PRIN | ≤ 0.2 |
| YSGW | ≤ 0.2 |
| FRES | ≤ 0.2 |
| WLIS | ≤ 0.2 |
| EVHG | ≤ 0.2 |
| CYPV | ≤ 0.2 |
| ESQN | ≤ 0.2 |
| ANKE | ≤ 0.2 |
| DMEF | ≤ 0.2 |
| WDRY | ≤ 0.2 |
| MSWG | ≤ 0.2 |
| YAIG | ≤ 0.2 |

| Variant | one-hybrid fitness for binding parS DNA |
| --- | --- |
| WREF | ≤ 0.2 |
| RFPE | ≤ 0.2 |
| CIWV | ≤ 0.2 |
| MRIG | ≤ 0.2 |
| MAPD | ≤ 0.2 |
| DEES | ≤ 0.2 |
| VTLW | ≤ 0.2 |
| MSHC | ≤ 0.2 |
| LGST | ≤ 0.2 |
| WCWS | ≤ 0.2 |
| SQTI | ≤ 0.2 |
| QKIL | ≤ 0.2 |
| RRGQ | ≤ 0.2 |
| FKLA | ≤ 0.2 |
| QSAY | ≤ 0.2 |
| ACDG | ≤ 0.2 |
| VNQA | ≤ 0.2 |
| VYGT | ≤ 0.2 |
| QSCT | ≤ 0.2 |
| ITNG | ≤ 0.2 |
| WLPE | ≤ 0.2 |
| GCMV | ≤ 0.2 |
| ICSE | ≤ 0.2 |
| GHFS | ≤ 0.2 |

| Variant | one-hybrid fitness for binding parS DNA |
| --- | --- |
| THGG | ≤ 0.2 |
| VHAY | ≤ 0.2 |
| SDRG | ≤ 0.2 |
| GLDG | ≤ 0.2 |
| QATF | ≤ 0.2 |
| PGQS | ≤ 0.2 |
| GMHE | ≤ 0.2 |
| KTNM | ≤ 0.2 |
| CRSR | ≤ 0.2 |
| KYYR | ≤ 0.2 |
| RIHT | 0.936 |
| NRHK | ≤ 0.2 |
| GLVM | ≤ 0.2 |
| RDNH | ≤ 0.2 |
| APNE | ≤ 0.2 |
| TATW | ≤ 0.2 |
| YFMC | ≤ 0.2 |
| HWQL | ≤ 0.2 |
| EFEL | ≤ 0.2 |
| SVSW | ≤ 0.2 |
| SGCF | ≤ 0.2 |
| RDDN | ≤ 0.2 |
| WQDS | ≤ 0.2 |
| AQNS | ≤ 0.2 |

| Variant | one-hybrid fitness for binding parS DNA |
| --- | --- |
| ECAF | ≤ 0.2 |
| AGQC | ≤ 0.2 |
| NLTW | ≤ 0.2 |
| WYSD | ≤ 0.2 |
| NSEG | ≤ 0.2 |
| TRKK | ≤ 0.2 |
| HVSL | ≤ 0.2 |
| VGNN | ≤ 0.2 |
| RNWS | 0.705 |
| NIDS | ≤ 0.2 |
| IFQM | ≤ 0.2 |
| PTQY | ≤ 0.2 |
| TCQV | ≤ 0.2 |
| RFPK | ≤ 0.2 |
| SKRD | ≤ 0.2 |
| VHSP | ≤ 0.2 |
| GQAM | ≤ 0.2 |
| WHFV | ≤ 0.2 |
